Measured values: PMC4336329 (PLoS ONE, 2015)
Hit rate of the full screen: of about 310,000 compounds, about 14,000 (4.5%) showed an effect of 50% or more. Effects have a minus sign here. The list shows a part of the results.

target: human ether-à-go-go-related gene (hERG) potassium channel (human, UniProt Q12809); assay: primary screen, population patch clamp on CHO cells stably expressing hERG
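Note: peak tail current of the secondary pulse compared with the same well before compound.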

Sequence of human ether-à-go-go-related gene (hERG) potassium channel (Q12809 whole entry, looked up): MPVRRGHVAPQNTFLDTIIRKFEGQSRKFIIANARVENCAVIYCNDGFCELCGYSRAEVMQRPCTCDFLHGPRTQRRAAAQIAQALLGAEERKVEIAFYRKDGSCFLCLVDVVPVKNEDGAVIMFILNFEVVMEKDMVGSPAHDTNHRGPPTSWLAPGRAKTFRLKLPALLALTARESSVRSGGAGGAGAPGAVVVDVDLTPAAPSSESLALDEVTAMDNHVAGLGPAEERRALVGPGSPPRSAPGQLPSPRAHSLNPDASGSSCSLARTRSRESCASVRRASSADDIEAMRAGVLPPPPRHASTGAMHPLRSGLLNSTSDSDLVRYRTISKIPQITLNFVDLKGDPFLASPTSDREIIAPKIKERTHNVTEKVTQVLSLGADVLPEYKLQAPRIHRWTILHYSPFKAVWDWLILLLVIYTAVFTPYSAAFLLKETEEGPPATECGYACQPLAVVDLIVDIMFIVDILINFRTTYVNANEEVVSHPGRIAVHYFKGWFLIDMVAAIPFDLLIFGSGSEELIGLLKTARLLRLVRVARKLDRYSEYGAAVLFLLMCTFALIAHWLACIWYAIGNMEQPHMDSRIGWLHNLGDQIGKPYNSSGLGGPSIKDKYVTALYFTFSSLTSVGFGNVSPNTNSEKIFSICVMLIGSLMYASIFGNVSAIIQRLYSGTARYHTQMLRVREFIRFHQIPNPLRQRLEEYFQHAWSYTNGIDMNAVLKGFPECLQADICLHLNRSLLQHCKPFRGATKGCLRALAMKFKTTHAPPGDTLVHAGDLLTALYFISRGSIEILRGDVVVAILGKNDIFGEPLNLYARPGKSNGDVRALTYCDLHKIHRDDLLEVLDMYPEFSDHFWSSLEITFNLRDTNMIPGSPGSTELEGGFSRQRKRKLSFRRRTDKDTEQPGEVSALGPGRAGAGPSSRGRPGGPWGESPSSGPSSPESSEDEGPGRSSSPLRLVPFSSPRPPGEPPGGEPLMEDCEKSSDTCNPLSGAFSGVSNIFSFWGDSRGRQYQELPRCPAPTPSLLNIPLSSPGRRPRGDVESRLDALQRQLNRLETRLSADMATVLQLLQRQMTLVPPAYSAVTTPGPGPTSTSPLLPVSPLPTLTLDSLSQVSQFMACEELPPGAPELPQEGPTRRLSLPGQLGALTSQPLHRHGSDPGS

SMILES | hERG current change (%, negative = inhibition) at 10uM [%]
COc1ccc(OC)c(-c2csc(NC(=O)CN3C(=O)NC4(CCCC4)C3=O)n2)c1 | -23.6
CCc1ccc(NC(=O)CN(c2cc(C)cc(C)c2)S(=O)(=O)c2c(C)[nH]c(=O)[nH]c2=O)cc1 | -33.7
COc1ccc(OCc2nn3c(-c4ccccn4)nnc3s2)cc1 | -34.7
CCOc1ccc(-n2c(C)cc(/C=N\NC(=O)CC(=O)NC3CCCCC3)c2C)cc1 | 3.74
COc1ccccc1CN1CCNC(=O)C1CC(=O)NCc1c(C)n[nH]c1C (centres unmarked) | 17.2
Cc1cc(N2CCN(C3CCCCC3)CC2)n2nc(C)nc2n1 | -57.7
COc1cccc(N2CCN(c3ccc(N4C(=O)CCC4=O)cc3[N+](=O)[O-])CC2)c1 | 13.7
COc1ccc(N2CCN(C(CNC(=O)C(C)C)c3ccc4c(c3)OCO4)CC2)cc1 (centres unmarked) | 9.23
O=C(Cc1ccccc1)NC(Nc1ccccc1)C(Cl)(Cl)Cl (centres unmarked) | 4.12
N#Cc1cccc(C(=O)N(CCc2ccccc2)Cc2cccs2)c1 | -53.3
Cc1ccc(CN2C3CCCC2CC(NC(=O)Nc2cccc(F)c2)C3)cc1 (centres unmarked) | -85.7
CNC(=O)Oc1ccc(N(C)C)cc1C(C)C | 1.97
COc1cc(OC)cc(C(=O)N[C@H](C(=O)Nc2nc(-c3cc(OC)ccc3OC)cs2)C(C)C)c1 | -15.2
CN(C)CCCNS(=O)(=O)c1ccc(N2CCN(Cc3ccc4c(c3)OCO4)CC2)c([N+](=O)[O-])c1 | -17.8
Cc1cc(NS(=O)(=O)c2ccc(NC(=O)c3cnc(Cl)c(Cl)c3)cc2)nc(C)n1 | 5.45
S=C(Nc1cccc(Cl)c1)N1CCN(c2ccccn2)CC1 | 12.9
Cc1ccc(C(=O)N/N=C\c2cccnc2)s1 | 6.27
O=C1CC(N2CCC(O)(c3ccc(Cl)cc3)CC2)C(=O)N1Cc1ccc(N2CCCC2=O)cc1 (centres unmarked) | -22
COc1cc(NC(=O)CSCc2ccccc2)c(C(=O)O)cc1OC | 11.2
Cc1ccc2[nH]c(=O)c(CN(Cc3ccccc3Cl)C(=O)N3CCOCC3)cc2c1 | -40.9
O=C(CSc1ncccn1)Nc1cccc2ccccc12 | -3.33
COc1ccccc1CCNC(=O)C(=O)NCCC1CCCCN1S(=O)(=O)c1cccs1 (centres unmarked) | -6.92
CNCCC(=O)N1c2ccccc2CCc2ccc(NC(=O)OC)cc21.Cl | 19.2
O=C1c2cc(O)cc(O)c2C(=O)c2c1cc(O)c([C@@H](CO)CCO)c2O | 24.9
O=C(CN(C(=O)CNS(=O)(=O)c1ccc(F)cc1)c1cccc(F)c1)NCC1CCCO1 (centres unmarked) | 20.7
CC(=O)Nc1ccc(NC(=O)C(C)OC(=O)c2ccccc2NS(=O)(=O)c2cccs2)cc1 (centres unmarked) | -16
O=C1NC(=O)C2(Cc3cc([N+](=O)[O-])ccc3N3CCN(C(=O)c4ccccc4)CC32)C(=O)N1 (centres unmarked) | 23

SMILES | hERG current change (%, negative = inhibition) at 10uM [%]
COc1ccc(C(=O)NCC(=O)NCC2(N(C)C)CCCCC2)cc1OC | 3.45
Cc1cccc(NC(=O)c2cc(-c3cc(C)c(C)cc3O)n[nH]2)c1 | 21.4
COC(=O)c1ccc2c(=O)n(NC(=O)C(c3ccccc3)c3ccccc3)c(=S)[nH]c2c1 | -18.3
S=c1[nH]ccn1-c1ccc(Cl)cc1 | 19.8
CCN(CC)C(=O)Cn1cc(S(=O)(=O)CC(=O)Nc2ccc(C(N)=O)cc2)c2ccccc21 | 18.2
COc1ccccc1OCCOCCN1CCCC1 | 10.1
CC(C)NC(=O)c1ccc(N2CCOCC2)nc1 | 17.1
CCOc1ccccc1C1c2[nH]c3ccccc3c2C[C@H]2C(=O)N(C3CCN(Cc4ccccc4)CC3)CC(=O)N12 (some centres unmarked) | -35.7
CC1(C)c2[nH]c3ccccc3c2C[C@@H]2C(=O)N(Cc3ccccc3Cl)C(=O)N21 | 15.4
Cc1ccc(S(=O)(=O)NC(=O)N2CCN(Cc3c(F)cccc3Cl)CC2)cc1 | 23.6
O=C(/C=C/c1ccc(O)cc1)c1ccccc1 | 3.82
C/C(=C\c1ccco1)CN1CCN(Cc2ccc(C)o2)C(CCO)C1 (centres unmarked) | -7.26
CC(=O)N1CCCc2ccccc21 | 15.5
C=C(C)C(=O)N1CC2(CC(c3cccc(NC(=O)c4ccccc4)c3)=NO2)C[C@@H]1C(N)=O (some centres unmarked) | -8.1
CC(C)(C)NC(=O)C(c1ccc(Cl)cc1)N(Cc1ccco1)C(=O)CCl (centres unmarked) | -3.86
NC(=O)c1ccc(N2CCCCC2)c(N2C(=O)C3C4C=CC(C4)C3C2=O)c1 (centres unmarked) | 6.9
COc1ccc(C(=O)C[n+]2ccc3c(c2)nc(-c2cc(OC)c(OC)cc2OC)n3C)cc1.[Br-] | 6.93
CCOC(=O)c1cc(-c2ccccc2)n(CC(=O)O)c1C | -3.73
CC12CCC(C(=O)NCc3ccccc3Cl)(CC1=O)C2(C)C (centres unmarked) | 7.53
CCN(CC)C(=O)c1sc(N2C(=O)Nc3ccccc3N2O)c(C(=O)OC)c1C | -4.49
COc1cccc(NC(=O)CN(C)C(=O)C(CCSC)NC(=O)c2ccco2)c1 (centres unmarked) | -3.97
O=C(COc1ccccc1)NCC(=O)NC1=NCCS1 | 12.8
COc1cc(OC)nc(NC(=O)CSc2nc3ccccc3[nH]2)n1 | -1.61
O=C1CCC(C(=O)N2CCCC(N3CCN(c4cccc(C(F)(F)F)c4)CC3)C2)=NN1 (centres unmarked) | -26.6
O=C(Cn1cc(/C=N/O)c2ccccc21)N1CCOCC1 | 22.4
CC(C)(C)NC(=O)C(c1ccc(O)cc1)N(C(=O)CCC(=O)Nc1nccs1)c1ccc(F)cc1 (centres unmarked) | 7.84
